# Measured values: the supplement of paper PMC4604168 (melanoma cell lines)
# Some of the results follow. Repeats are few or missing, and single values can be far off.
# How the values were obtained:
# Experiment in all cases: cell count relative to DMSO control; melanoma cells; higher = more viable cells
# Settings in all cases: library dose: standard library concentration; 72 h
# [1] = system: SkMel28
# [2] = system: SkMel2
# [3] = system: SkMel30
# [4] = system: SkMel5
# [5] = system: UACC257
# [6] = system: UACC62
# [7] = system: WM115
# [8] = system: WM1716
# [9] = system: WM1745
# [10] = system: WM3526
# 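Also: cells treated in 1,536-well plates, then fixed and DAPI-stained, with nuclei counted from automated high-throughput microscope images.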
Structure (SMILES),cell count [1] [%],cell count [2] [%],cell count [3] [%],cell count [4] [%],cell count [5] [%],cell count [6] [%],cell count [7] [%],cell count [8] [%],cell count [9] [%],cell count [10] [%]
"NC(=O)Nc1cc(-c2cccc(F)c2)sc1C(=O)N[C@H]1CCCNC1 + Cc1cc(N2CCOCC2)cc2[nH]c(-c3c(NC[C@@H](O)c4cccc(Cl)c4)cc[nH]c3=O)nc12 [BMS536924] (first compound 0.1 µM, partner dose 1 µM)",32.8,68,80.9,58.1,82.9,53.7,56.1,59.2,27.1,48.4
"C[C@]1(c2nc3c(C(N)=O)cccc3[nH]2)CCCN1 [Veliparib] + Cc1cc([N+](=O)[O-])ccc1NS(=O)(=O)c1cc(Cl)ccc1Cl [FH535] (first compound 7 µM, partner dose 5 µM)",67.6,66.6,89.3,70.2,64,77.7,68.9,71.9,84.7,73.2
"Cc1nc(Nc2ncc(C(=O)Nc3c(C)cccc3Cl)s2)cc(N2CCN(CCO)CC2)n1 [dasatanib] + Cc1ccc(NC(=O)c2cccc(N(C)C)c2)cc1NC(=O)c1ccc(O)cc1 [ZM336372] (first compound 0.02 µM, partner dose 10 µM)",113,101,114,68.7,93,93.5,58,61.9,49.8,82.2
"C=CCn1c(=O)c2cnc(Nc3ccc(N4CCN(C)CC4)cc3)nc2n1-c1cccc(C(C)(C)O)n1 + CN(NC(=O)CC(=O)NN(C)C(=S)c1ccccc1)C(=S)c1ccccc1 [STA4783] (first compound 0.1 µM, partner dose 0.03 µM)",6.14,54.5,77.6,52.2,83.7,37.6,27.6,71.7,29.8,69.7
"Cc1nc(Nc2ncc(C(=O)Nc3c(C)cccc3Cl)s2)cc(N2CCN(CCO)CC2)n1 [dasatanib] + COc1cc2ncnc(Nc3ccc(Oc4ccccc4)cc3)c2cc1OC [SrcI1] (first compound 0.02 µM, partner dose 10 µM)",63.1,74,73.8,63.1,63.4,64.4,0.91,33.2,24.4,47.8
"OCCn1cc(-c2cnc3nnn(Cc4ccc5ncccc5c4)c3n2)cn1 + O=S(=O)(c1ccccc1)N(CC(F)(F)F)c1ccc(C(O)(C(F)(F)F)C(F)(F)F)cc1 [T0901317] (first compound 5 µM, partner dose 7 µM)",88.2,89.7,82.9,84.1,82.3,56.6,91.6,107,80.6,73.1
"C=CCn1c(=O)c2cnc(Nc3ccc(N4CCN(C)CC4)cc3)nc2n1-c1cccc(C(C)(C)O)n1 + O=C1NC(=O)/C(=C/c2ccc(-c3ccc(F)cc3O)o2)S1 [AS252424] (first compound 0.1 µM, partner dose 5 µM)",90.1,81.9,79.6,69,95.2,68.5,103,92.3,50.4,71.7
"C[C@]1(c2nc3c(C(N)=O)cccc3[nH]2)CCCN1 [Veliparib] + O=c1cc(-c2cccc3c2Sc2ccccc2S3)oc(N2CCOCC2)c1 [KU55933] (first compound 7 µM, partner dose 5 µM)",59.1,74.5,85.4,64.1,95.6,72.1,91,86.3,85.1,78
"C=CCn1c(=O)c2cnc(Nc3ccc(N4CCN(C)CC4)cc3)nc2n1-c1cccc(C(C)(C)O)n1 + Cn1cncc1[C@@](N)(c1ccc(Cl)cc1)c1ccc2c(c1)c(-c1cccc(Cl)c1)cc(=O)n2C [tipifarnib] (first compound 0.1 µM, partner dose 0.05 µM)",32.3,44.2,68.1,50.9,93.9,72.8,55.3,67,49.4,58
"OCCn1cc(-c2cnc3nnn(Cc4ccc5ncccc5c4)c3n2)cn1 + C[C@@H]1CCN(C(=O)CC#N)C[C@@H]1N(C)c1ncnc2[nH]ccc12 [CP690550] (first compound 5 µM, partner dose 5 µM)",104,107,110,86.7,113,82,96.1,94.7,82.4,96.7
"OCCn1cc(-c2cnc3nnn(Cc4ccc5ncccc5c4)c3n2)cn1 + COc1cc2c(Oc3ccc4[nH]c(C)cc4c3F)ncnc2cc1OCCCN1CCCC1 [cediranib] (first compound 5 µM, partner dose 2 µM)",125,82,92.1,77,93.9,97.9,99,91.3,52.5,99.7
"NCC(=O)Nc1ccc(-n2nc(C(F)(F)F)cc2-c2ccc3c(ccc4ccccc43)c2)cc1 + COc1ccc(-c2ccc3c(N4CCOCC4)nc(N4C[C@@H](C)O[C@@H](C)C4)nc3n2)cc1CO [KU0063794] (first compound 5 µM, partner dose 0.1 µM)",26.8,45.9,48.3,70,98,69.7,115,91.3,111,67.4
"CN(C)S(=O)(=O)c1ccc2c(c1)/C(=C/c1cc3c([nH]1)CCCC3)C(=O)N2 + COc1cc(N2CCC(N3CCN(C)CC3)CC2)ccc1Nc1ncc(Cl)c(Nc2ccccc2S(=O)(=O)C(C)C)n1 [NVP-TAE684] (first compound 2 µM, partner dose 0.4 µM)",42.4,75.9,82.1,67.4,80.3,49.9,50.8,64.5,40.4,64.6
"OCCn1cc(-c2cnc3nnn(Cc4ccc5ncccc5c4)c3n2)cn1 + COc1ccc2c(c1)CCC1C2CCC2(C)C(NCCCCCCN3C(=O)C=CC3=O)CCC12 [U73122] (first compound 5 µM, partner dose 2 µM)",82.8,94.2,92.6,95.9,106,86.8,104,90.7,98.4,102
"CO[C@@H]1[C@H](N(C)C(=O)c2ccccc2)C[C@H]2O[C@]1(C)n1c3ccccc3c3c4c(c5c6ccccc6n2c5c31)C(=O)NC4 [Midostaurin] + O=C(O)C(=O)Nc1sc2c(c1C(=O)O)CCNC2 [TCS401] (first compound 0.4 µM, partner dose 8.33333 µM)",44.8,71.1,68,52.7,67.3,87,45.3,44.2,43.4,96.7
"Cc1nc(Nc2ncc(C(=O)Nc3c(C)cccc3Cl)s2)cc(N2CCN(CCO)CC2)n1 [dasatanib] + COc1cc2c(Oc3ccc4[nH]c(C)cc4c3F)ncnc2cc1OCCCN1CCCC1 [cediranib] (first compound 0.02 µM, partner dose 2 µM)",55.6,77.7,84.6,66.2,91.7,68.1,55.4,51.8,40.2,71.1
"NC(=O)Nc1cc(-c2cccc(F)c2)sc1C(=O)N[C@H]1CCCNC1 + O=C(Nc1ccccc1)c1cc([N+](=O)[O-])ccc1Cl [GW9662] (first compound 0.1 µM, partner dose 10 µM)",16.5,79.1,64.1,84.3,70.2,65.4,61.8,4.45,55.4,55.6
"NC(=O)Nc1cc(-c2cccc(F)c2)sc1C(=O)N[C@H]1CCCNC1 + Cn1cc(/C=C2\C(=O)Nc3cccnc32)c2ccccc21 [GW441756] (first compound 0.1 µM, partner dose 2 µM)",42.4,93,77,94.8,110,96.4,80.5,85.4,44.9,59.3
"NCC(=O)Nc1ccc(-n2nc(C(F)(F)F)cc2-c2ccc3c(ccc4ccccc43)c2)cc1 + Oc1cc(-c2nc(-c3ccccc3)[nH]c2-c2ccncc2)ccc1Cl [L779450] (first compound 5 µM, partner dose 1 µM)",43.4,19.3,53.1,53.7,78.1,25.1,42.7,76.1,52.6,45.6
"CO[C@@H]1[C@H](N(C)C(=O)c2ccccc2)C[C@H]2O[C@]1(C)n1c3ccccc3c3c4c(c5c6ccccc6n2c5c31)C(=O)NC4 [Midostaurin] + O=c1cc(-c2cccc3c2Sc2ccccc2S3)oc(N2CCOCC2)c1 [KU55933] (first compound 0.4 µM, partner dose 5 µM)",33.2,40,45,61.6,63.7,70.9,43.2,38.8,30.9,73.1
"C=CCn1c(=O)c2cnc(Nc3ccc(N4CCN(C)CC4)cc3)nc2n1-c1cccc(C(C)(C)O)n1 + CC(C)(C)c1cnc(CSc2cnc(NC(=O)C3CCNCC3)s2)o1 [SNS-032] (first compound 0.1 µM, partner dose 0.05 µM)",50.4,77.8,77.7,59.4,99.8,70.1,67.9,95.9,57.1,76.9
"C[C@]1(c2nc3c(C(N)=O)cccc3[nH]2)CCCN1 [Veliparib] + COc1cc(Nc2ncc(F)c(Nc3ccc4c(n3)NC(=O)C(C)(C)O4)n2)cc(OC)c1OC [Tamatinib] (first compound 7 µM, partner dose 2 µM)",61.1,78.5,93.4,44.1,98.2,66.9,61.2,72,40.9,71.9
